Consider 44 sequences from the supplement of paper PMC11417369.

± gives the standard deviation of the averaged measurements. This is one part of the list.

The test concerns PfAP2-EXP AP2 domain (GST-tagged). Nature of the test: gcPBM binding intensity (ln(normalized median fluorescence intensity)); higher = stronger DNA binding. In a few lines: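 For binding intensity, the highest Masliner-normalised natural-log median intensity across replicate spots of either probe orientation was taken. Protein bound to the array was stained with Alexa488 anti-GST antibody and scanned at 488 nm. The protein, GST-tagged P. falciparum DNA-binding domains from E. coli at about 25 μg on average, had been applied for 1 h to an Agilent 4 × 180k array of primer-extended double-stranded 36-bp intergenic genomic probes and negative controls.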
In the case of “TGATATTTACAAATATTAAGATCTTATATTTTTTTT [CACACA_negctrl_site617]”, the “gcPBM binding intensity (ln)” value was 8.21 ± 0.36.

Turning to “TATATATATATATTACGTACATAGAACTTTATAAAA [XGTACX_site4485]”, the “gcPBM binding intensity (ln)” value turned out to be 9.85 ± 0.15.

On to “AATATTATAAATGATACACACTTAAAATACACGCAC [CACACA_site7305]”, for which the “gcPBM binding intensity (ln)” value is 8.84 ± 0.29.

In the case of “ATATTTATACATAAATGTACTTTTATATATTTAATA [XGTACX_site3020]”, the “gcPBM binding intensity (ln)” value turned out to be 8.29 ± 0.29.

For “GTATATATATATATATGTACTAATTAGTAGTTTACG [XGTACX_site6274]”, the “gcPBM binding intensity (ln)” value worked out at 8.85 ± 0.38.

On to “TATTACATAATACAAAGTACATATATTTTTTTATTT [XGTACX_site7061]”, for which the “gcPBM binding intensity (ln)” value came out at 8.16 ± 0.36.

With “AGCACATATATATTATGTACATATAACTTCCCAGTG [XGTACX_site7095]”, the “gcPBM binding intensity (ln)” value turned out to be 8.64 ± 0.41.

For “CGATACTTTAGGTGTACACAAATATACATGAATGAG [CACACA_site5189]”, the “gcPBM binding intensity (ln)” value was found to be 8.9 ± 0.29.

Regarding “AAAAAAAAGGAAATAACACACATGTATTTATTTATA [CACACA_site4966]”, the “gcPBM binding intensity (ln)” value was found to be 8.32 ± 0.29.

With “TATAATCATATTAAGGGTACATATGTGTAAATATTT [XGTACX_site6018]”, the “gcPBM binding intensity (ln)” value came out at 8.75 ± 0.38.

“TTATTATAAATGTTTTGTACGTACATCCGAAAATAA [XGTACX_site2175]”: the “gcPBM binding intensity (ln)” value was found to be 8.72 ± 0.29.

Take “ATAATAATAATATAACCAAGGAAATATAATATTTGT [XGTACX_negctrl_site485]”: the “gcPBM binding intensity (ln)” value was 8.46 ± 0.47.

As for “CTTTAAAACCGGTACTGTACACATAGTATTATTATC [XGTACX_site2602]”, the “gcPBM binding intensity (ln)” value is 8.79 ± 0.39.

As for “GAACCATAAGGAACGACACACAAAGATAAATAAATA [CACACA_site3472]”, the “gcPBM binding intensity (ln)” value amounted to 8.57 ± 0.47.

With “AAAAAAAAATTATTCACACATATATATATATATATA [CACACA_site5579]”, the “gcPBM binding intensity (ln)” value came to 10.2 ± 0.33.

“AAAAATAAAAAAAGCACACACATATATATATATATA [CACACA_site1885]”: the “gcPBM binding intensity (ln)” value was found to be 10.2 ± 0.28.

Regarding “ATAATATTTTAATGCACACACACAAAAAAAAAAAAA [CACACA_site2891]”, the “gcPBM binding intensity (ln)” value stood at 8.62 ± 0.43.

As for “AAATTTGCTTTTATTTTACACACTTGCTCCTGTTGT [CACACA_site8276]”, the “gcPBM binding intensity (ln)” value came to 8.97 ± 0.49.

Regarding “AAACAATCTAAAAGTAGTACAATAAAAATATATATA [XGTACX_site5607]”, the “gcPBM binding intensity (ln)” value was determined as 8.79 ± 0.23.

Regarding “CATCTTATATAATCATGTACATATAGAGACTTCTTT [XGTACX_site7685]”, the “gcPBM binding intensity (ln)” value was found to be 8.51 ± 0.35.

For “GGGGGAATTTACATGGGTACACATGTATTAAAAAAT [XGTACX_site4130]”, the “gcPBM binding intensity (ln)” value was 9.85 ± 0.35.

Take “TTTTTCTTACATGAGTGTACACACTTTTTTTCAGAA [XGTACX_site138]”: the “gcPBM binding intensity (ln)” value is 8.93 ± 0.42.

As to “TTATATGTATGGAGGTTTTTGTATATAGATATATAG [CACACA_negctrl_site177]”, the “gcPBM binding intensity (ln)” value came out at 8.36 ± 0.41.

As for “AATATAAACAAACACACACACATATATATATATATT [CACACA_site5592]”, the “gcPBM binding intensity (ln)” value is 8.7 ± 0.4.

Regarding “AAAAAAAAAAAAAATAGTACAATACCCAAATATAAC [XGTACX_site6684]”, the “gcPBM binding intensity (ln)” value was found to be 8.86 ± 0.44.

As to “ATAAAAAAAGGACACACACACATATATTTATTTATA [CACACA_site7438]”, the “gcPBM binding intensity (ln)” value worked out at 8.66 ± 0.52.

For the sequence “ATGTCATATAATAGTACACACATGAAAATATAAATA [CACACA_site3215]”, the “gcPBM binding intensity (ln)” value came out at 8.76 ± 0.42.

Regarding “GGTAGGGATTATACCACACACACATACACATAAATA [CACACA_site3179]”, the “gcPBM binding intensity (ln)” value is 8.71 ± 0.64.

With “ACTATTAAAATGAATACACACAAATATAAAAATATA [CACACA_site4145]”, the “gcPBM binding intensity (ln)” value came to 8.53 ± 0.41.

As to “ACGCTACATAAATACGTGCACATCTTTTTGTGTATA [GTGCAC_site9675]”, the “gcPBM binding intensity (ln)” value amounted to 8.84 ± 0.11.

Turning to “ATTTATTAATATCCCAGTACTCATGGGGAATAATGA [XGTACX_site4014]”, the “gcPBM binding intensity (ln)” value was found to be 8.38 ± 0.34.

In the case of “TTGTGTAAAGGTATTATTGTATTATTCAAAATAAAA [XGTACX_negctrl_site167]”, the “gcPBM binding intensity (ln)” value turned out to be 8.27 ± 0.38.

For the sequence “AATATATAATATATATGTACTTATATATAAAAGATA [XGTACX_site7635]”, the “gcPBM binding intensity (ln)” value came to 8.49 ± 0.28.

On to “TGGAGGAACCTCATATGTACGTATAAATATATATTT [XGTACX_site5603]”, for which the “gcPBM binding intensity (ln)” value was 8.8 ± 0.42.

As to “CATATATATTTGTTCACACACACACTAATAAAAAAA [CACACA_site8787]”, the “gcPBM binding intensity (ln)” value was 8.62 ± 0.43.

For the sequence “TTAAAGCACCCATGCACACACACAAAGGAAAAGAAA [CACACA_site233]”, the “gcPBM binding intensity (ln)” value came out at 8.86 ± 0.47.

For the sequence “TGATAAATTAAAAATTGTACTATTATAATAATATAT [XGTACX_site6615]”, the “gcPBM binding intensity (ln)” value came out at 8.24 ± 0.37.

On to “TTTATATAAATTTATTCACACAACTAATTTTTTAAA [CACACA_site4848]”, for which the “gcPBM binding intensity (ln)” value was 8.32 ± 0.41.

In the case of “ATCAAATAGAGACACACACACCTAAACATAAAAGAA [CACACA_site7321]”, the “gcPBM binding intensity (ln)” value turned out to be 8.91 ± 0.39.

Consider “ACAATAAACATATATACACACACAAAAAAAAAAACA [CACACA_site8033]”, for which the “gcPBM binding intensity (ln)” value was determined as 8.65 ± 0.4.

Take “AAAAAATTATACCTTTGTACATAAATAAAATATTAT [XGTACX_site418]”: the “gcPBM binding intensity (ln)” value was 8.22 ± 0.31.

As for “TATGTATATATTTACGCATGCTACTCTATTTTGAGA [TGCATGCA_site990]”, the “gcPBM binding intensity (ln)” value worked out at 9.37 ± 0.2.

For the sequence “ACCCATTGCTCACGTGCACACATAGAAAAATAATTC [CACACA_site4389]”, the “gcPBM binding intensity (ln)” value is 9.205 ± 0.078.

With “ATAACATAAGGAAATACACACATATATAAGTATATA [CACACA_site778]”, the “gcPBM binding intensity (ln)” value was found to be 8.56 ± 0.28.
